# The supplement of paper PMC12217912
# The list shows a part of the results. The full chains were built here from the parent and the listed change. Inactive controls read about 0.05.
# B1: TEV protease; numbered along this chain (parent)
# chain: MGESLFKGPRDYNPISSSICHLTNESDGHTTSLYGIGFGPFIITNKHLFRRNNGTLVVQSLHGVFKVKDTTTLQQHLVDGRDMIIIRMPKDFPPFPQKLKFREPQREERICLVTTNFQTKSMSSMVSDTSCTFPSGDGIFWKHWIQTKDGQCGSPLVSTRDGFIVGIHSASNFTNTNNYFTSVPKNFMELLTNQEAQQWVSGWRLNADSVLWGGHKVFMVKPEEPFQPVKEATQL
# Variants of: B1
# Assay: raw area under fraction-flipped curve 0-4 h after induction (AUC4h, not background-subtracted), DNA-recorder readout of cleavage of the substrate (dimensionless); higher = more cleavage of the substrate by the protease variant
# Conditions: temperature: 34 °C; time window: 0-4 h after rhamnose induction
# Description: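 In vivo DNA recorder in E. coli TOP10(DE3) ΔrhaA at 34 °C. Each TEVp single-site mutant (parent TEVp 0) is paired with a single-site variant of the 7-mer TEVs (canonical ENLYFQ|S). The substrate sits between flexible linkers in a Bxb1-sfGFP-TEVs-SsrA fusion, so cleavage stabilises Bxb1 and speeds flipping of a recombination array, read by NGS. The value is the raw area under the fraction-flipped curve over 0-4 h after rhamnose induction (AUC4h), with ≥20 reads per time point. It is not background-subtracted; inactive controls average about 0.047.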
# 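Further: Bxb1 expression induced with 0.2% (w/v) L-rhamnose at OD600 near 0.5, cultures sampled hourly, flipped fraction per protease–substrate barcode pair counted by paired-end Illumina sequencing.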
Variant,area with substrate ENLYDQS,area with substrate ENLYEQS,area with substrate ENLYGQS,area with substrate ENLYHQS,area with substrate ENLYIQS,area with substrate ENLYLQS,area with substrate ENLYMQS,area with substrate ENLYNQS,area with substrate ENLYPQS,area with substrate ENLYQQS,area with substrate ENLYRQS,area with substrate ENLYWQS,area with substrate ENLYYQS,area with substrate ENLYSQS,area with substrate ENLYVQS,area with substrate ENLYKQS,area with substrate ENLYTQS
F41G,0.0421,0.0546,0.0461,0.0489,0.0842,0.0616,0.0505,0.0597,0.0811,0.0606,0.0381,0.0688,0.0435,,,,
N116L,0.0517,0.0604,0.0672,0.0616,0.118,,0.0816,0.0704,0.115,,,0.0703,0.054,0.0669,0.113,,
P222I,0.0734,,0.0549,0.0556,,,0.0883,0.0773,0.064,0.0552,,0.0695,0.0666,,0.0905,,
P222A,0.0601,0.0628,0.0692,0.14,,0.0646,,0.0585,0.0743,,,0.0922,0.0618,0.0642,,,
G214D,0.0589,0.0854,0.0542,0.0696,,,0.0713,0.072,0.0575,,0.0583,,0.0763,,,0.0656,
V58R,0.0529,0.043,0.0464,0.0468,0.0624,,0.052,0.0542,0.0459,,0.0585,,0.048,,0.0471,0.0633,
D79T,0.0544,0.0522,,,,,0.0835,0.057,,0.0711,,,,0.0844,0.0985,0.0619,
D79S,0.0571,0.0675,0.0722,0.0817,0.113,0.0741,0.0838,0.0676,0.0636,0.0595,0.0592,0.0521,,0.0856,0.0799,0.0706,0.082
I84A,0.0505,0.0577,0.064,0.0542,,,0.0724,0.068,,0.0664,,,,,,0.0291,0.0671
F49D,0.057,0.0564,0.05,0.0398,0.0591,0.066,0.052,0.063,0.0625,0.0486,0.0667,0.0537,,0.0493,0.0719,0.0668,0.0433
K185S,0.0754,0.0607,,0.0706,,,,0.0645,0.0665,0.0629,0.0538,0.0865,0.0665,0.0753,,0.0892,0.0617
K185M,0.0666,0.0555,0.0644,0.0699,0.178,0.0908,0.0788,0.0706,0.0852,,0.0484,0.0514,0.0668,,,0.0571,
V67A,0.0545,0.0688,,0.056,0.107,,0.0904,0.0559,0.0911,0.067,0.0634,0.0784,,0.0761,0.122,0.0562,
K68Y,0.0539,0.0628,0.0597,0.0649,0.111,0.0748,,0.0982,0.0614,0.0771,0.06,0.0753,,0.0653,,0.0595,0.0802
M188N,0.0554,0.0646,,0.0642,,0.0806,0.0819,0.0679,,,0.0724,,,0.0775,,0.0484,
E3F,0.0611,0.0565,0.0634,0.0668,,,0.0828,,,0.0707,,,0.0677,,0.149,0.0686,0.0944
F226G,0.0616,0.0502,0.057,0.0762,0.0699,0.0637,0.0418,0.0688,0.074,,0.0596,,,0.0676,0.0903,0.0538,0.0979
Q97H,0.0684,0.0685,0.0657,0.0677,,,0.0637,0.069,0.0762,,0.0536,0.0693,,,,,0.0847
Q97A,0.0744,,0.0616,0.0714,0.122,,0.0728,0.06,,0.0671,,,,0.0705,,0.0496,
Q198A,0.0591,0.0681,0.0499,,,,0.0873,0.0603,0.0602,0.0681,,0.0886,0.0652,0.0719,0.0935,0.0573,0.0704
G54W,0.057,0.0498,,0.0537,,,,0.0573,,0.0613,0.0582,0.0537,0.0467,,0.0681,0.0608,0.0521
R106S,0.0598,0.0693,0.0619,0.0654,0.12,0.0991,0.0849,0.0665,0.082,,0.0725,0.074,,0.0703,0.128,0.071,
I110N,0.0587,0.0591,0.0564,0.0603,0.0468,0.0477,0.0559,0.0557,0.0532,,0.0568,0.0514,0.0588,0.0525,0.0538,0.0548,
V113M,0.0624,0.062,,0.0742,0.0849,,0.0835,0.0723,,0.0639,,0.0747,0.0449,0.0752,0.137,,
K142W,0.0544,0.0651,0.0627,0.0588,0.0727,,0.0694,,0.0709,0.074,0.071,,0.0633,0.0607,0.079,0.0611,0.0617
Q194N,0.0675,0.064,0.0567,0.0409,,,0.0858,0.0817,0.083,0.0676,,0.0588,,,,0.103,
L5P,0.0994,,0.0651,0.0595,,,,,0.0646,,,,,,0.0643,,0.0575
T147R,0.0608,0.0581,0.0537,0.049,,,0.0584,0.0572,0.0468,0.0673,0.0601,0.0572,0.0621,0.0501,,0.047,
T31V,0.0664,0.0664,0.066,0.0686,0.149,,0.0925,0.0816,0.0673,0.0788,0.0539,0.0879,0.0628,0.0788,0.0824,0.0738,0.0786
